Measurements: the supplement of paper PMC8728848
The list shows a part of the results.

How the values were obtained:
Test in all cases: glycan array binding signal (z-score within array); higher = stronger binding
Settings in all cases: glycan notation: IUPAC condensed, linker removed
[1] = molecular target: Gal(b1-3)GlcNAc(b1-3)Gal(b1-4)[Fuc(a1-3)]GlcNAc(b1-6)[Gal(b1-3)GlcNAc(b1-3)]Gal(b1-4)Glc
In short: (§1)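 Glycan array binding is given as a within-array Z-score, which can be read as non-binding when negative. The arrays, 3228 of them, came from the Consortium for Functional Glycomics database and were retained only where the protein sequence was available. Z-scores were averaged across arrays of the same protein sequence at different concentrations or buffers and across linkers.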

[2] = molecular target: Gal(b1-3)GlcNAc(b1-3)GalNAc
In short: as §1

[3] = molecular target: Gal(b1-3)GlcNAc(b1-6)Gal(b1-4)GlcNAc
In short: as §1

[4] = molecular target: Gal(b1-3)[Fuc(a1-4)]GlcNAc
In short: as §1

[5] = molecular target: Gal(b1-3)[Fuc(a1-4)]GlcNAc(b1-2)Man(a1-3)[Gal(b1-3)[Fuc(a1-4)]GlcNAc(b1-2)Man(a1-6)]Man(b1-4)GlcNAc(b1-4)GlcNAc
In short: as §1

[6] = molecular target: Gal(b1-3)[Fuc(a1-4)]GlcNAc(b1-2)Man(a1-3)[Gal(b1-3)[Fuc(a1-4)]GlcNAc(b1-2)Man(a1-6)]Man(b1-4)GlcNAc(b1-4)[Fuc(a1-6)]GlcNAc
In short: as §1

[7] = molecular target: Gal(b1-3)[Fuc(a1-4)]GlcNAc(b1-3)Gal(b1-3)[Fuc(a1-4)]GlcNAc
In short: as §1

[8] = molecular target: Gal(b1-3)[Fuc(a1-4)]GlcNAc(b1-3)Gal(b1-4)GlcNAc
In short: as §1

[9] = molecular target: Gal(b1-3)[Fuc(a1-4)]GlcNAc(b1-3)Gal(b1-4)[Fuc(a1-3)]GlcNAc
In short: as §1

[10] = molecular target: Gal(b1-3)[GlcNAc(b1-6)]GalNAc
In short: as §1

[11] = molecular target: Gal(b1-3)[Neu5Ac(a2-6)]GalNAc
In short: as §1

[12] = molecular target: Gal(b1-3)[Neu5Ac(a2-6)]GlcNAc(b1-6)Gal(b1-4)Glc
In short: as §1

[13] = molecular target: Gal(b1-3)[Neu5Ac(b2-6)]GalNAc
In short: as §1

Gal(b1-4)Gal = molecular target: Gal(b1-4)Gal
In short: as §1

[14] = molecular target: Gal(b1-4)GalNAc(a1-3)[Fuc(a1-2)]Gal(b1-4)GlcNAc
In short: as §1

[15] = molecular target: Gal(b1-4)GalNAc(b1-3)[Fuc(a1-2)]Gal(b1-4)GlcNAc
In short: as §1

Gal(b1-4)Glc = molecular target: Gal(b1-4)Glc
In short: as §1

Gal(b1-4)Glc6S = molecular target: Gal(b1-4)Glc6S
In short: as §1

Gal(b1-4)GlcNAc = molecular target: Gal(b1-4)GlcNAc
In short: as §1

[16] = molecular target: Gal(b1-4)GlcNAc(a1-6)Gal(b1-4)GlcNAc
In short: as §1

[17] = molecular target: Gal(b1-4)GlcNAc(b1-2)Man(a1-3)Man(b1-4)GlcNAc(b1-4)GlcNAc
In short: as §1

[18] = molecular target: Gal(b1-4)GlcNAc(b1-2)Man(a1-3)[Gal(b1-4)GlcNAc(b1-2)Man(a1-6)]Man(b1-4)GlcNAc(b1-4)GlcNAc
In short: as §1

[19] = molecular target: Gal(b1-4)GlcNAc(b1-2)Man(a1-3)[Gal(b1-4)GlcNAc(b1-2)Man(a1-6)]Man(b1-4)GlcNAc(b1-4)[Fuc(a1-6)]GlcNAc
In short: as §1

[20] = molecular target: Gal(b1-4)GlcNAc(b1-2)Man(a1-3)[Gal(b1-4)GlcNAc(b1-2)][GlcNAc(b1-4)]Man(b1-4)GlcNAc(b1-4)GlcNAc
In short: as §1

[21] = molecular target: Gal(b1-4)GlcNAc(b1-2)Man(a1-3)[GlcNAc(b1-2)Man(a1-6)]Man(b1-4)GlcNAc(b1-4)GlcNAc
In short: as §1

[22] = molecular target: Gal(b1-4)GlcNAc(b1-2)Man(a1-3)[Man(a1-6)]Man(b1-4)GlcNAc(b1-4)GlcNAc
In short: as §1

[23] = molecular target: Gal(b1-4)GlcNAc(b1-2)Man(a1-6)Man(b1-4)GlcNAc(b1-4)GlcNAc
In short: as §1

[24] = molecular target: Gal(b1-4)GlcNAc(b1-2)Man(a1-6)[GlcNAc(b1-2)Man(a1-3)]Man(b1-4)GlcNAc(b1-4)GlcNAc
In short: as §1

[25] = molecular target: Gal(b1-4)GlcNAc(b1-2)Man(a1-6)[Man(a1-3)]Man(b1-4)GlcNAc(b1-4)GlcNAc
In short: as §1

[26] = molecular target: Gal(b1-4)GlcNAc(b1-2)[Gal(b1-4)GlcNAc(b1-4)]Man(a1-3)[Gal(b1-4)GlcNAc(b1-2)Man(a1-6)]Man(b1-4)GlcNAc(b1-4)GlcNAc
In short: as §1

[27] = molecular target: Gal(b1-4)GlcNAc(b1-2)[Gal(b1-4)GlcNAc(b1-4)]Man(a1-3)[Gal(b1-4)GlcNAc(b1-2)[Gal(b1-4)GlcNAc(b1-6)]Man(a1-6)]Man(b1-4)GlcNAc(b1-4)GlcNAc
In short: as §1

[28] = molecular target: Gal(b1-4)GlcNAc(b1-2)[Gal(b1-4)GlcNAc(b1-4)]Man(a1-3)[GlcNAc(b1-4)][Gal(b1-4)GlcNAc(b1-2)Man(a1-6)]Man(b1-4)GlcNAc(b1-4)GlcNAc
In short: as §1

[29] = molecular target: Gal(b1-4)GlcNAc(b1-2)[Gal(b1-4)GlcNAc(b1-6)]Man(a1-6)[GlcNAc(b1-4)][Gal(b1-4)GlcNAc(b1-2)Man(a1-3)]Man(b1-4)GlcNAc(b1-4)GlcNAc
In short: as §1

[30] = molecular target: Gal(b1-4)GlcNAc(b1-3)Gal(b1-3)GlcNAc
In short: as §1

[31] = molecular target: Gal(b1-4)GlcNAc(b1-3)Gal(b1-4)Glc
In short: as §1

[32] = molecular target: Gal(b1-4)GlcNAc(b1-3)Gal(b1-4)GlcNAc
In short: as §1

[33] = molecular target: Gal(b1-4)GlcNAc(b1-3)Gal(b1-4)GlcNAc(b1-3)Gal(b1-4)GlcNAc
In short: as §1

B1: Gal 3 (Canis lupus) (protein)
chain: MADSFSLNDALSGSGNPNPQGWPGPWGNQPAGAGGYPGASYPGAYPGQAPPGGYPGQAPPGGYPGQAPPGGYPGQAPPGGYPGQAPPGGYPGQAPPGTYPGPTAPAYPGPTAPGTQPGQPSGPGAYPPPGQPSAPGAYPAAGPFGIPAGPLTVPYDLPLPGGVKPRMLITILGTVRPSANRLALDFKRGNDVAFHFNPRFNEDNKRVIVCNTKLDNIWGKEERQAAFPFESGKPFKIQVLVESDHFKVAVNDAHLLQYNHRMKNLPEISKLGISGDIDLTSASYAMI
- glycan array binding signal (z-score) [1]: -0.143
- glycan array binding signal (z-score) [2]: -0.224
- glycan array binding signal (z-score) [3]: -0.231
- glycan array binding signal (z-score) [4]: -0.26
- glycan array binding signal (z-score) [5]: -0.163
- glycan array binding signal (z-score) [6]: -0.197
- glycan array binding signal (z-score) [7]: -0.262
- glycan array binding signal (z-score) [8]: -0.186
- glycan array binding signal (z-score) [9]: -0.258
- glycan array binding signal (z-score) [10]: -0.249
- glycan array binding signal (z-score) [11]: -0.252
- glycan array binding signal (z-score) [12]: -0.257
- glycan array binding signal (z-score) [13]: -0.259
- glycan array binding signal (z-score) (Gal(b1-4)Gal): -0.154
- glycan array binding signal (z-score) [14]: 2.74
- glycan array binding signal (z-score) [15]: -0.247
- glycan array binding signal (z-score) (Gal(b1-4)Glc): -0.259
- glycan array binding signal (z-score) (Gal(b1-4)Glc6S): -0.255
- glycan array binding signal (z-score) (Gal(b1-4)GlcNAc): -0.239
- glycan array binding signal (z-score) [16]: -0.202
- glycan array binding signal (z-score) [17]: -0.192
- glycan array binding signal (z-score) [18]: 0.134
- glycan array binding signal (z-score) [19]: -0.133
- glycan array binding signal (z-score) [20]: -0.126
- glycan array binding signal (z-score) [21]: -0.157
- glycan array binding signal (z-score) [22]: -0.214
- glycan array binding signal (z-score) [23]: -0.15
- glycan array binding signal (z-score) [24]: -0.238
- glycan array binding signal (z-score) [25]: -0.242
- glycan array binding signal (z-score) [26]: 0.313
- glycan array binding signal (z-score) [27]: 0.352
- glycan array binding signal (z-score) [28]: -0.144
- glycan array binding signal (z-score) [29]: -0.137
- glycan array binding signal (z-score) [30]: 1.01
- glycan array binding signal (z-score) [31]: 0.512
- glycan array binding signal (z-score) [32]: 2.67
- glycan array binding signal (z-score) [33]: 5.09
